Results: PubChem BioAssay (NCATS)
Several values for one entry are separate records, joined by “and”; a condition that tells them apart may be missing. Equal values may be shown once. Inconclusive results, whose numbers are uncertain, are shown with a selection of clear calls. For some of these results: Where the call is inconclusive, the potency comes from a doubtful curve fit. Activity calls are given as the source filed them. Unless noted, calls come from the whole dose curve; as a rule, active = well fitted curve in the direction sought with a large enough effect; inconclusive = small, poorly fitted or top-dose-only effect, or another doubt; inactive = no such curve, though single readings can be large; an effect the other way counts as inactive or inconclusive. Numbered stars: 1 amine (or outer) side, 2 acyl side, 3 side chain; on linkers, the order of the positions; unused ones are H or OH. Square brackets hold non-standard residues; d marks the D form. Peptide text beside a SMILES is read from it. X2 = CC(C)=CCc1cc(C(O)C(N[*:1])C(=O)[*:2])ccc1O

Assays:
[1] = P-glycoprotein substrates identified in KB-8-5-11 adenocarcinoma cell line, qHTS therapeutic library screen (AID 1346987); note: nearly all actives have a fitted effect of over 65% in size; note: potency is the fitted concentration of half-maximal effect
Summary of the method: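 In this qHTS, P-gp-rich KB-8-5-11 cells received library compounds across a concentration range. Viability was quantified by luminescence after 72 h at 37 degree C.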

[2] = Primary qHTS for inhibitors of nuclear receptor binding SET domain protein 2 (NSD2) in an isogenic RCH-ACV NSD2 p.E1099K mutant (9B) (AID 1645876); note: nearly all actives have a fitted effect of over 70% in size; note: potency is the fitted concentration of half-maximal effect
[3] = Primary fluorescence-based thiol-reactive (MSTI) qHTS assay for identification of artifact compounds. (AID 1845221); note: potency is the fitted concentration of half-maximal effect;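 note: thiol-reactive compounds lower the probe fluorescence signal; nearly all actives have a fitted effect of over 65% in size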
Summary of the method: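 Thiol-reactive compounds detected by quenching of 4 uM MSTI fluorescence (525/598 nm) after 1 h room-temperature dark incubation in PBS pH 7.4, 2% DMSO. qHTS titration; percent inhibition Hill-fitted against Acetyl-MSTI/MSTI controls.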

CRL-7250 = normal cell line; assay: Cytotoxic Profiling of Annotated Libraries Using Quantitative High-Throughput Screening (AID 1296008); conditions: Five cell lines viability, CellTiter-Glo ATP luminescence, 48-72 h; max response: stronger effect = lower value; note: nearly all actives have a fitted effect of over 60% in size; note: potency is the fitted concentration of half-maximal effect; for max response: % is set by controls: 0 for no effect and ±100 for the full control effect
Summary of the method: (§1)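 Compounds were pin-transferred onto cells and incubated 48 or 72 hr at 37 degree Celsius, 95% humidity. CellTiter-Glo was added, plates sat 10 min at room temperature, then ATP-coupled luminescence was imaged as the viability read-out.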

HEK293 = assay: as above; conditions: Five cell lines viability, CellTiter-Glo ATP luminescence, 48-72 h; max response: stronger effect = lower value
Summary of the method: as §1

OV90 = assay: Primary qHTS to identify gynecologic anti-cancer compounds using libraries of approved drugs and bioactive compounds (AID 1345084); conditions: Gynecologic cancer cell panel viability, ATPlite luminescence, 48 h; series mostly up to 57.5 µM; note: nearly all actives have a fitted effect of over 55% in size; note: potency is the fitted concentration of half-maximal effect; for activity change, negative = cytotoxicity: % is set by controls: 0 for no effect and ±100 for the full control effect
Summary of the method: (§2)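 Five-point cytotoxicity, 48 h drug exposure at 37 C, 5% CO2, on cells seeded 16 h beforehand. ATP content read by ATPlite luminescence.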

PA-1 = assay: as above; conditions: Gynecologic cancer cell panel viability, ATPlite luminescence, 48 h; series mostly up to 57.5 µM
Summary of the method: as §2

Tov-21-G = assay: as above; conditions: Gynecologic cancer cell panel viability, ATPlite luminescence, 48 h; activity change, negative = cytotoxicity: at 57.5 µM (top of the series)
Summary of the method: as §2

[4] = biological target: Cytochrome P450 2D6 (Homo sapiens) (UniProt P10635); assay: Cytochrome P450 family 2 subfamily D member 6 (CYP2D6) small molecule antagonists: luciferase biochemical (cell-free) qHTS assay (AID 1645840; active = well fitted curve in the direction sought with a large enough effect in the repeat runs; inconclusive = weak or mixed curves; inactive = no such curve, though single readings can be large; an effect the other way counts as inactive or inconclusive; note: potency is the fitted concentration of half-maximal effect; nearly all actives have a fitted effect of over 55% in size)
UniProt P10635, sequence (P10635 whole entry, looked up): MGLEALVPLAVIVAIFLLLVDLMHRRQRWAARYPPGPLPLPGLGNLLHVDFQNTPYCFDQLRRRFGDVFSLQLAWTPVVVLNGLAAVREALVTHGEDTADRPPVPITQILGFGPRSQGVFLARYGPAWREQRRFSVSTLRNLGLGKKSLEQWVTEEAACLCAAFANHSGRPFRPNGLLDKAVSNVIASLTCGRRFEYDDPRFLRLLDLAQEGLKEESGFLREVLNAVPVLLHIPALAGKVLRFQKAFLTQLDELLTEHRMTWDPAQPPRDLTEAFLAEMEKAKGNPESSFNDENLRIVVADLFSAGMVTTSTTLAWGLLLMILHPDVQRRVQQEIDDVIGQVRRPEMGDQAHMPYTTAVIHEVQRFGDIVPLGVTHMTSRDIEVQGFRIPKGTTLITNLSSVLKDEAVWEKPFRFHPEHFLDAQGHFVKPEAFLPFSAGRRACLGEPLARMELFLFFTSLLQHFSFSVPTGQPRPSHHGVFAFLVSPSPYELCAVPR
Summary of the method: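 P450-Glo CYP2D6 system: proluciferin substrate converted by enzyme to luciferin, read by luminescence proportional to activity. Enzyme-substrate mix with compound 10 min at room temperature, then NADPH regeneration 1 h before detection reagent.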

SKOV3 = assay: Primary qHTS to identify gynecologic anti-cancer compounds using libraries of approved drugs and bioactive compounds (AID 1345084); conditions: Gynecologic cancer cell panel viability, ATPlite luminescence, 48 h; series mostly up to 57.5 µM; note: nearly all actives have a fitted effect of over 55% in size; note: potency is the fitted concentration of half-maximal effect; for activity change, negative = cytotoxicity: % is set by controls: 0 for no effect and ±100 for the full control effect
Summary of the method: as §2

[5] = test system: Zika virus NS2B-NS3 protease (unlinked complex); assay: Primary screen GU Rhodamine qHTS for Zika virus inhibitors: Unlinked NS2B-NS3 protease assay (AID 1347159); note: % is set by controls: 0 for no effect and ±100 for the full control effect; nearly all actives have a fitted effect of over 60% in size
Summary of the method: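 Enzyme 25 nM in Tris-HCl pH 8.0 + 0.01% Tween 20; compounds up to 114 microM, 15 min RT dark; + Rhod110 substrate 1.5 microM; read t0 and 15 min; delta fluorescence → % inhibition → 4-parameter Hill fit.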

[6] = biological target: Cytochrome P450 2C9 (Homo sapiens) (UniProt P11712); assay: Cytochrome P450 family 2 subfamily C member 9 (CYP2C9) small molecule antagonists: luciferase biochemical (cell-free) qHTS assay (AID 1645842; active = well fitted curve in the direction sought with a large enough effect in the repeat runs; inconclusive = weak or mixed curves; inactive = no such curve, though single readings can be large; an effect the other way counts as inactive or inconclusive)
UniProt P11712, sequence (P11712 whole entry, looked up): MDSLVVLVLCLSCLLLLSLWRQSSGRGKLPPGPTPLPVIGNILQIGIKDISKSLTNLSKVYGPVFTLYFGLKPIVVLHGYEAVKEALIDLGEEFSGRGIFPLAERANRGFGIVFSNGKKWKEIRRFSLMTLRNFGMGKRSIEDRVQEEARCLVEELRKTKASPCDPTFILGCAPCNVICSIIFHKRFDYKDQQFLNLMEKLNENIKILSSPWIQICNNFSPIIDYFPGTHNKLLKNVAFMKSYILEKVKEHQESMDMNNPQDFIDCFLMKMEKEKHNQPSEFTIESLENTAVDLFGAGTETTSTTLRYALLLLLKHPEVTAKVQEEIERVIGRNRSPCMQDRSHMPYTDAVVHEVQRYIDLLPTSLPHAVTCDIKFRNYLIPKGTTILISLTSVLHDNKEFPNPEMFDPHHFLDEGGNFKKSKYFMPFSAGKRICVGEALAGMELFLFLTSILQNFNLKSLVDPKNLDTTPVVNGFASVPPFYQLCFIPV
Summary of the method: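 P450-Glo CYP2C9 system: proluciferin substrate with enzyme in mix containing 0.4% BSA, 10 min at room temperature, then NADPH regeneration solution added and incubated 1 h at 37C. Detection reagent stopped reaction; luminescence read after 20 min as RLU.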

[7] = Primary qHTS for inhibitors of nuclear receptor binding SET domain protein 2 (NSD2) in an RCH-ACV wild type WT cells (2C) (AID 1645877); conditions: activity change, negative = cell killing: at 44.9 µM (top of the series); note: nearly all actives have a fitted effect of over 70% in size; note: potency is the fitted concentration of half-maximal effect
Hek293T = assay: Primary qHTS to identify gynecologic anti-cancer compounds using libraries of approved drugs and bioactive compounds (AID 1345084); conditions: Gynecologic cancer cell panel viability, ATPlite luminescence, 48 h, control line for the selectivity index; series mostly up to 57.5 µM; note: nearly all actives have a fitted effect of over 55% in size; note: potency is the fitted concentration of half-maximal effect; for activity change, negative = cytotoxicity: % is set by controls: 0 for no effect and ±100 for the full control effect
Summary of the method: as §2
Tags give direction and shape of the fitted curve.

In the case of `COC1CCN(C(=O)c2cc(Cc3n[nH]c(=O)c4ccccc34)ccc2F)CC1`, the Potency [1] is reported as inconclusive: 18.4 µM [inhibitor, single point], the Potency [2] is reported as active: 13.2 µM and the Potency [3] is reported as “inactive”. For the same compound, the Potency (CRL-7250) was inconclusive: 18.4 µM [inhibitor, partial curve], the Potency (HEK293) was inconclusive: 23.1 µM [inhibitor, partial curve] and the Potency (OV90) was “inactive”. The Potency (PA-1) was “inactive” and the Potency (Tov-21-G) was “inactive”.

For `CC(C)=CCc1cc(C(O)C2NC(=O)CNC(=O)C(Cc3c[nH]c4ccccc34)NC(=O)C3CCCN3C(=O)CNC(=O)C(C(C)C)NC(=O)CNC2=O)ccc1O` (stereo unspecified) (cyclo(G[X2]GVGPW); configuration not given here), the Potency (CRL-7250) was inconclusive: 1.55 µM [inhibitor, single point], the max response (HEK293) was inactive: -8.38% and the activity change, negative = cytotoxicity (OV90) was inactive: 5.8% [at 11.6 µM].

For `O=S(=O)(Nc1ccccc1N1CCCCC1)c1ccc(Cl)s1`, the Potency [1] was inconclusive: 20.6 µM [inhibitor, single point], the Potency [4] was inconclusive: 16.9 µM [inhibitor, partial curve] and the Potency [2] was “inactive”. The Potency [3] was inconclusive: 13.4 µM [inhibitor, partial curve, poor fit], the Potency (CRL-7250) was inconclusive: 29.1 µM [inhibitor, single point] and the Potency (HEK293) was inconclusive: 23.1 µM [inhibitor, single point]. The Potency (OV90) was inconclusive: 10 µM [cytotoxic, partial curve, poor fit] and the Potency (SKOV3) was “inactive”.

For `COc1nc2ccc(Br)cc2cc1[C@@H](c1ccccc1)[C@@](O)(CCN(C)C)c1cccc2ccccc12`, the Potency [1] was inconclusive: 20.6 µM [inhibitor, single point], the Potency [5] was “inactive” and the Potency [6] was active: 3.79 µM. The Potency [2] was inconclusive: 18.3 µM [inhibitor, single point], the Potency [7] was active: 14.5 µM and the Potency [3] was “inactive”. The Potency (CRL-7250) was inconclusive: 29.1 µM [inhibitor, single point], the Potency (HEK293) was inconclusive: 18.4 µM [inhibitor, single point] and the Potency (Hek293T) was inconclusive: 31.6 µM [cytotoxic, single point]. For the same compound, the Potency (SKOV3) was “inactive”.

With `O=C(CC1CC(c2ccc(F)cc2F)=NO1)N1CCOCC1` (stereo unspecified) the Potency [4] was inconclusive: 23.9 µM [inhibitor, partial curve, poor fit], the Potency [7] was “inactive” and the Potency [3] was inconclusive: 37.7 µM [inhibitor, partial curve, poor fit]. The max response (CRL-7250) was inactive: -1.82%, the max response (HEK293) was inactive: 4.11% and the Potency (SKOV3) was “inactive”.

For `C/C=C1/[C@H](O[C@@H]2O[C@H](CO)[C@@H](O)[C@H](O)[C@H]2O)OC=C2C(=O)O[C@@H]3C[C@@H](C(C)CO)[C@H](COC(=O)C[C@H]21)[C@H]3C` (stereo partly specified), the Potency [1] was “inactive”, the Potency [7] was inconclusive: 7.96 µM [inhibitor, single point] and the max response (CRL-7250) was inactive: 3.26%. For the same compound, the max response (HEK293) was inactive: -21.8%.

In the case of `O=c1[nH]c2ccc(C#CCN3CCC(Cc4ccccc4)CC3)cc2[nH]1`, the Potency [1] is reported as inconclusive: 18.4 µM [inhibitor, partial curve], the Potency [2] is reported as inconclusive: 23 µM [inhibitor, partial curve] and the Potency [7] is reported as inconclusive: 25.8 µM [inhibitor, partial curve]. For the same compound, the Potency [3] was “inactive”, the Potency (CRL-7250) was inconclusive: 29.1 µM [inhibitor, single point] and the Potency (HEK293) was inconclusive: 23.1 µM [inhibitor, single point]. The Potency (PA-1) was inconclusive: 31.6 µM [cytotoxic, partial curve, poor fit].

In the case of `COC(=O)c1sccc1S(=O)(=O)Nc1ccc(Nc2ccccc2)cc1OC`, the Potency [1] is reported as “inactive”, the Potency [4] is reported as inconclusive: 5.35 µM [inhibitor, partial curve] and the Potency [2] is reported as inconclusive: 18.3 µM [inhibitor, single point]. The Potency [7] was inconclusive: 16.3 µM [inhibitor, single point], the Potency [3] was inconclusive: 0.752 µM [inhibitor, full curve] and the Potency (CRL-7250) was inconclusive: 29.1 µM [inhibitor, single point]. The Potency (HEK293) was inconclusive: 18.4 µM [inhibitor, single point] and the Potency (SKOV3) was “inactive”.

With `Cc1cn(-c2cc(NC(=O)c3ccc(C)c(Nc4nccc(-c5cnccn5)n4)c3)cc(C(F)(F)F)c2)cn1` the Potency [1] was inconclusive: 5.8 µM [inhibitor, full curve], the Potency [4] was inconclusive: 5.35 µM [inhibitor, partial curve, poor fit] and the Potency [2] was inconclusive: 7.31 µM [inhibitor, partial curve]. For the same compound, the Potency [7] was “inactive and inconclusive: 23.1 µM [inhibitor, single point]”, the max response (CRL-7250) was inactive: -3.34% and the max response (HEK293) was inactive: -20.5%. For the same compound, the Potency (OV90) was “inactive”.
